Results: ChEMBL document CHEMBL4888484, “Replenishing the malaria drug discovery pipeline: Screening and hit evaluation of the MMV Hit Generation Library 1 (HGL1) against asexual blood stage Plasmodium falciparum ,using a nano luciferase reporter read-out” (2022)
Out of some 150,000 compounds screened, about 540 (0.36%) showed an effect of 50% or more. The list shows a part of the results.

tested on: Plasmodium falciparum; test: Primary screen in NF54 nanoGlo assay, in single point, at 2uM, 72h; a lower Z score goes with more inhibition; assay type: functional, Erythrocyte; conditions: timepoint 72 hour

Compound | % Inhibition [%] | Z score
NC(=O)c1cccc(OC(=O)c2cccc3cc[nH]c23)c1 | -5 | 0.82
Cc1ccnc(OCC(=O)Nc2cccc(C(F)(F)F)c2)n1 | -9 | 0.76
COC[C@](C)(CC(=O)O)NC(=O)c1ccc(C)c(C)c1 | -11 | 2.27
Cc1cc(C(=O)N(C)C2CC2)nn1C(F)F | 0 | 0.06
O=C(CN(Cc1ccco1)[C@H]1CCS(=O)(=O)C1)N1CCc2ccccc21 | -1 | 0.18
CCc1ocnc1C(=O)NS(=O)(=O)c1cc(Cl)c2c(c1)C[C@H](C)O2 | -10 | 1.34
Fc1ccc2c(c1)-c1c(cnc3cc(-c4ccccc4)nn13)CO2 | -2 | 0.19
O=C(CCN1C(=O)CCC1=O)Nc1cccc(S(=O)(=O)N2CCCCC2)c1 | -4 | 0.89
CC(=O)c1nnn(-c2nn(C)c3nc(C)cc(C)c23)c1C | -4 | 0.57
COc1ccc(C(C)(O)C2CCCN2C(=O)c2cc(C)oc2C)cc1 (centres undefined) | 0 | 0.01
CC(=O)Nc1ccc(N2C(=O)C3C(Cc4c[nH]c5ccccc45)NC4(C(=O)Nc5ccccc54)C3C2=O)cc1 (centres undefined) | 4 | -0.48
CC(C)(CO)CNc1nc2nonc2nc1N1CCCC1 | -2 | 0.23
Cc1cc(N2CCCC2)c(F)cc1C(=O)c1ccccc1 | -11 | 1.45
COCC(=O)Nc1cc(C(=O)NCCc2ccco2)c2c(c1)ncn2Cc1ccc(F)cc1 | -1 | 0.11
COCCN1C[C@@H](Cc2cccc(C(C)=O)c2)CC1=O | 11 | -1.45
CCn1c(C(=O)N2CCN(Cc3ccccc3)CC2)cc2c(-c3cccs3)nn(-c3ccccc3)c21 | -4 | 0.68
COc1ccccc1OCC(=O)N1CCC[C@H](Oc2ccncc2)C1 | -1 | 0.08
Cc1ccc([C@H](C)N[C@H]2CC[C@H](O)CC2)s1 | -7 | 1
Cc1nc(CN(C)Cc2cnc(NCc3ccccc3)nc2)cs1 | 8 | -0.73
Cc1n[nH]cc1CN(C)C(=O)CCOc1ccccc1 | -26 | 3.85
CC(C)C[C@H]1C(=O)NCCCN1C(=O)COCc1ccnn1C | 11 | -1.51

Compound | % Inhibition [%] | Z score
CCOc1cc(C(=O)N[C@@H](Cc2ccccc2)C(=O)N2CCC3(CC2)NCCc2[nH]cnc23)cc(OCC)c1OCC | 3 | -0.32
Cn1cnc(CNC(=O)NCC2(N3CCOC(C)(C)C3)CCCCC2)n1 | -21 | 2.69
C[C@]1(C(=O)Nc2ccccc2-n2cncn2)CC1(Cl)Cl | -3 | 0.66
O=C(Nc1ccc(S(=O)(=O)N2C[C@@H]3C[C@@H](C2)c2cccc(=O)n2C3)cc1)c1ccccc1Cl | -2 | 0.21
Cc1ccc([C@@H](C)C(=O)NC2(c3ccccc3F)COC2)o1 | -5 | 0.7
O=C(NC1CCCCC1)N1CC[C@H](c2nc3ccccc3o2)C1 | 12 | -1.41
C[C@H]1Cc2ccccc2N1C(=O)C1CCN(S(=O)(=O)c2ccc3c(c2)CCCN3C(=O)C2CCC2)CC1 | -12 | 2.34
O[C@@H](CN(c1ccc2nccnc2n1)C1CC1)c1ccc(F)cc1 | -8 | 1.39
O=C(C1CC=CCC1)N1CCCC1c1nc(-c2ccccc2F)c[nH]1 (centres undefined) | -2 | 0.35
Cc1nc(N)sc1C(=O)NCC[C@H]1CCCCO1 | -2 | 0.4
O=C(COc1ccc2ccccc2c1)N1CCC(=C2CC2)CC1 | -11 | 1.26
C[C@H]1CS(=O)(=O)C[C@H]1NC(=O)C1(C)CC=CCC1 (some centres undefined) | -11 | 0.94
Cn1ccnc1COC(=O)c1ccc(N2CCCC2)nc1 | -9 | 1.04
O=C(NCc1cccnc1)c1cn2c(n1)C(=O)N[C@H](c1ccc(F)cc1)C2 | -5 | 0.78
COc1ccc(CC(=O)Nc2ccnn2C2CCCCC2)cc1C | -8 | 1.02
COc1cc2c(cc1C(=O)N[C@@H]1COCC[C@@H]1OCCN(C)C)CCC2 | -11 | 1.23
Cn1cnn(CC(=O)NC2CCCC2)c1=O | -10 | 1.28
CCCC[C@H](CC)CNC(=O)c1cnc2c(-c3ccc4c(c3)OCO4)cnn2c1C | -5 | 0.83
O=c1[nH]nc([C@@H]2CCCO2)cc1C(F)(F)F | -5 | 0.78
Cc1cc(C)n(CC(=O)N2CCC[C@H]2c2nc(CCOCc3ccccc3)no2)n1 | -8 | 1
c1cc2c(cc1OCCNCc1nc3c(s1)CCC3)OCO2 | -16 | 2.02
